The whole screen tested about 110,000 compounds, of which about 230 (0.21%) showed an effect of 50% or more. Some of the results follow.
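Also: 30 min substrate incubation versus DMSO and 10 µM JCP410 controls.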

Chain of DPAP1 (Q8IIJ9 whole entry, looked up): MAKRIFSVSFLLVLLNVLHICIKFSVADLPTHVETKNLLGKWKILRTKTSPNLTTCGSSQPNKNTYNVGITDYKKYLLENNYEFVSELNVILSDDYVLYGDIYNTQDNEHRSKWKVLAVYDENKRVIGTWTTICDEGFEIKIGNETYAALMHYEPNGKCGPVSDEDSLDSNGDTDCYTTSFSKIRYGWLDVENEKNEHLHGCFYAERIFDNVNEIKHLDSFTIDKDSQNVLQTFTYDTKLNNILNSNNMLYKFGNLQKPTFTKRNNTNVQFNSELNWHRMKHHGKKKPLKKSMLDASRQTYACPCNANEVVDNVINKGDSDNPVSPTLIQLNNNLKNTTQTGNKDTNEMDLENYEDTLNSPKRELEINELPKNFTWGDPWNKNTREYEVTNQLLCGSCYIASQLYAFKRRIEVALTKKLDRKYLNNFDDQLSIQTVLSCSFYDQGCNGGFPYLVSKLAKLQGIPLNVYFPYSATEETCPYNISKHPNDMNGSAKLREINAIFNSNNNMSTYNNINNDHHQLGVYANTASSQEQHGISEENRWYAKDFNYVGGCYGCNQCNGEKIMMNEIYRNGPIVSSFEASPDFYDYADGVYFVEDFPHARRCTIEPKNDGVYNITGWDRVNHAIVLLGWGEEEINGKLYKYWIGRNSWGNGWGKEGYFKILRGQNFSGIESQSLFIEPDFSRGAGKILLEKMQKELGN

The test concerns the target DPAP1 (Plasmodium falciparum, UniProt Q8IIJ9). Kind of test: primary screen, percent inhibition; read by cleavage of a fluorogenic dipeptide substrate; higher = more effect of the substance. On the set-up: species or system P. falciparum D10 trophozoite lysates; single well.
Take `Cc1sc(NS(=O)(=O)c2ccc(Br)cc2)nc1-c1ccccc1`: the “% Inhibition @ 10 uM” value was 5.44%. As for `O=C(Nc1cccc2c1C(=O)c1ccccc1C2=O)c1ccco1`, the “% Inhibition @ 10 uM” value is listed as -0.197%. For the compound `CSc1cccc(NC2CN3CCC2CC3)c1` (centres unmarked), the “% Inhibition @ 10 uM” value is recorded as -1.82%. With `CCOP(=O)(OCC)C(Nc1ccc(Br)cc1)c1c[nH]c2ccccc12` (centres unmarked), the “% Inhibition @ 10 uM” value is -3.38%. Consider `CN(C)c1nc(N)c2c(ncn2C)n1`, for which the “% Inhibition @ 10 uM” value turned out to be 2.06%. With `CCN(CC)C(=O)Cn1cc(S(=O)(=O)Cc2c(F)cccc2Cl)c2ccccc21` the figure was 6.05%; with `OC(c1ccccc1)c1ccc2c(c1)c1c3n2CCNC3CCC1` (centres unmarked), -10.8%.

With `COc1cccc(C2=NC(C)=C(C#N)C(C(F)(F)F)(C(F)(F)F)N2)c1`, the “% Inhibition @ 10 uM” value is on record as -5.2%. With `CCOC(=O)c1cnc(-c2ccccc2)nc1-c1ccncc1` the figure was -1.03%; with `CC(=O)N1CCC2(CC1)OC(=O)C(C)=C2C(=O)NCCN(C)C1CCCCC1`, -1.58%; with `Cc1ccc(-c2cc(C(=O)Nc3ccncc3)c3ccccc3n2)o1`, -3.45%. With `Cc1nn(Cc2ccc(Cl)cc2Cl)c(C)c1NC(=O)C1C2CCC(O2)C1C(=O)O` (centres unmarked) the figure was 4.74%. With `Cc1nc(O)c2cnn(-c3ccccc3)c2n1` the figure was -5.32%.

For the compound `Cn1cc(C2N3CC4(C)CN2CC(C)(C3)C4O)c2ccccc21` (centres unmarked), the “% Inhibition @ 10 uM” value was -1.33%.

On to `CCOc1ccc(NC(=O)c2cc([N+](=O)[O-])ccc2Cl)c([N+](=O)[O-])c1`, for which the “% Inhibition @ 10 uM” value is reported as -6.11%. Regarding `COc1cccc(N2C(=O)c3ccccc3C2=O)c1`, the “% Inhibition @ 10 uM” value stood at 10.6%. With `CCOC(=O)C1=C(C)N=c2s/c(=C\c3sccc3C)c(=O)n2C1c1ccc(OC)c(OC)c1` (centres unmarked) the figure was 1.52%; with `Cc1sc2nc(-c3ccccc3)nc(O)c2c1C`, 3.65%; with `CN(C)c1ccc(NC=C2C(=O)NC(=O)NC2=O)cc1`, 5.32%. With `Cc1cc(N)n(-c2ccccc2C(=O)O)n1` the figure was -2.97%; with `Cc1ccc(/C=C2\C(=N)N3N=C(S(C)(=O)=O)SC3=NC2=O)cc1`, -1.58%; with `C=CCOc1ccc(C=C2C(=O)N(C)C(=O)N(C)C2=O)cc1OCC`, -1.93%.

Regarding `CCCCN(CCNC(=O)Cn1ncc2c3ccccc3n(CCC)c2c1=O)Cc1ccco1`, the “% Inhibition @ 10 uM” value is recorded as -2.21%.

As for `Cc1nn(CCCC(=O)N2CCN(c3ccccn3)CC2)c(=O)c2c1sc1ccccc12`, the “% Inhibition @ 10 uM” value is listed as -4.93%.

In the case of `COc1ccc2nc(NC(=O)C(NS(=O)(=O)c3cccs3)c3ccccc3)sc2c1` (centres unmarked), the “% Inhibition @ 10 uM” value is on record as -2.65%. With `O=C(O)CCCNC1=C(Cl)C(=O)c2ccccc2C1=O` the figure was -2.14%; with `CN(C)CCC(O)(c1ccccc1)c1ccccc1`, 0.00784%.

Regarding `COc1ccc(NC(=O)c2cccs2)c(OC)c1`, the “% Inhibition @ 10 uM” value is reported as -1.62%.

For the compound `Cc1nn(CC(=O)NCCCN2CC(C)CC(C)C2)c(=O)c2c1sc1ccccc12` (centres unmarked), the “% Inhibition @ 10 uM” value is on record as -5.61%. With `COc1ccc(C2N(C(=O)CN3CCOCC3)CCN2S(=O)(=O)c2ccc(C)cc2)cc1` (centres unmarked) the figure was -0.425%. With `CCc1cc2c(cc3c(=O)n(CC(=O)NCc4ccccc4OC)nc(CC)n32)s1` the figure was -1.7%; with `COc1ccc(-c2nn3c(C(F)(F)F)nnc3s2)cc1OC`, -1.29%; with `CCn1c(=N)n(CC(O)COc2ccc(Cl)cc2)c2ccccc21` (centres unmarked), -3.39%. As for `CN1C(=O)NC(c2ccc(O)cc2)C2=C1CN(Cc1ccco1)C2=O` (centres unmarked), the “% Inhibition @ 10 uM” value is reported as 0.9%. With `COc1cc(NC(=O)C23CC4CC(C2)CC(n2cnc(Br)n2)(C4)C3)cc(OC)c1OC` the figure was 3.57%; with `CCc1c(O)n(C(C)CC)c(SC)nc1=O` (centres unmarked), 5.56%. In the case of `Cc1ccc(CCNC(=O)C2CCN(S(=O)(=O)N3CCC4(CC3)OCCO4)CC2)cc1`, the “% Inhibition @ 10 uM” value is given as -2.99%.

As to `CCc1c(C)sc(NC(=O)c2ccc(C)o2)c1C(N)=O`, the “% Inhibition @ 10 uM” value is listed as 0.163%.

With `CCN1CCN(Cc2c(F)cccc2Cl)CC1`, the “% Inhibition @ 10 uM” value is 3.68%.

With `CC(C)NC(=O)Nc1cccc(Cl)c1`, the “% Inhibition @ 10 uM” value is recorded as -7.57%. With `COCCCNC(=O)Cn1nc(C)n2c(cc3occc32)c1=O` the figure was -2%. For the compound `O=C(c1csc2c1CCCC2)N1CCOCC1`, the “% Inhibition @ 10 uM” value was found to be 0.392%. As to `COc1ccc2[nH]c3c(=O)n(CCCCCC(=O)NC(C)C)c(=S)[nH]c3c2c1`, the “% Inhibition @ 10 uM” value is recorded as -2.16%. With `C=CCc1cc(C2C3=C(O)CCCC3=NC3=C2C(=O)CCC3)cc(OC)c1O` (centres unmarked) the figure was -1.06%; with `CC1CCCN(S(=O)(=O)c2cc(Cl)ccc2Cl)C1` (centres unmarked), 3.47%. With `CCn1ncc(C2=NOC(C(=O)NCCc3ccccc3)C2)c1C` (centres unmarked) the figure was -4.85%. `COc1cccc(-c2cc(C(=O)N3CCN(C(=O)c4cc(OC)c(OC)c(OC)c4)CC3)[nH]n2)c1`: the “% Inhibition @ 10 uM” value came to 5.15%.

With `CCC(C)NC(=O)Cn1c(-c2ccccc2)cc(C(C)=O)c1C` (centres unmarked), the “% Inhibition @ 10 uM” value is recorded as 7.56%.

As for `COc1ccc(N(CC(=O)Nc2ccccc2C)S(=O)(=O)c2ccccc2)cc1Cl`, the “% Inhibition @ 10 uM” value is -1.95%. With `CCN(CC)S(=O)(=O)c1nnc(NC(=O)C2CCCCC2)s1` the figure was -5.37%; with `CC1CN(Cc2nc3c(c(=O)n(C)c(=O)n3C)n2CCCc2ccccc2)CC(C)O1` (centres unmarked), 3.63%; with `Cn1c2ccccc2c2cnn(CC(=O)O)c(=O)c21`, 3.24%. With `Cn1c(=O)c2c(nc(N3CCN(c4ccccn4)CC3)n2Cc2ccccc2Cl)n(C)c1=O` the figure was -3.53%. With `Cc1cc(C=C2C(=O)N(C)C(=O)N(C)C2=O)c(C)n1-c1ccc(OCc2ccccc2F)cc1` the figure was 5%. Turning to `CC(C)(C)c1ccc(CN(C(=O)c2cc(=O)c3cc(Cl)ccc3o2)C2CCS(=O)(=O)C2)cc1` (centres unmarked), the “% Inhibition @ 10 uM” value came out at 6.56%.

As to `Cc1ccc(OCC(=O)Nc2cccc(O)c2)c(C)c1`, the “% Inhibition @ 10 uM” value was -1.42%.

With `CCOC(=O)N1CCC(NC(=O)C2CCN(S(=O)(=O)c3cccc4cccnc34)CC2)CC1`, the “% Inhibition @ 10 uM” value was determined as 0.208%.

For the compound `COc1ccc(-c2cn3c(n2)sc2cc(C(=O)NCc4ccc(F)cc4)ccc23)cc1`, the “% Inhibition @ 10 uM” value is recorded as -2.67%. With `O=C(NCc1ccccc1Cl)C1CCC(CNS(=O)(=O)c2ccccc2)CC1` (centres unmarked) the figure was -4.53%; with `Cc1ccc(S(=O)(=O)/N=C2\C=C(NCc3ccccc3)C(=O)c3ccccc32)c(C)c1`, -3.33%. With `CCOc1ccc2[nH]c(C(=O)O)c(CCNC(C)=O)c2c1` the figure was 6.43%. With `COc1ccccc1CNc1nc2c(-c3ccccc3)nnn2c2ccccc12` the figure was -6.52%; with `N#C/C(=C\c1c(Oc2ccccc2)nc2ccccn2c1=O)C(=O)NCc1ccco1`, 1.06%. For the compound `COc1ccc(-c2noc(-c3cccc4ccccc34)n2)cc1`, the “% Inhibition @ 10 uM” value stood at 0.343%. With `O=c1/c(=C/c2cccc3ccccc23)sc2nc(-c3ccc(F)cc3)nn12`, the “% Inhibition @ 10 uM” value stood at 3.87%.

`Cc1ccc(S(=O)(=O)N2CCCC(C(=O)N3CCc4ccccc4C3)C2)cc1` (centres unmarked): the “% Inhibition @ 10 uM” value is recorded as 3.87%. With `CCCOc1cccc(C2C3=C(O)CC(C)(C)CC3=Nc3ccccc3N2C(C)=O)c1` (centres unmarked) the figure was -6.62%; with `COc1ccc(-c2nc(CS(=O)CC(=O)NC3CCCCCC3)c(C)o2)cc1` (centres unmarked), -2.85%; with `COc1ccc(/C=C/c2nn3c(-c4ccncc4)nnc3s2)cc1`, 27.1%.

As for `CC(c1ccccc1)N1C(=O)c2ccc(Br)cc2C1=O` (centres unmarked), the “% Inhibition @ 10 uM” value worked out at 2.7%.

`N=C1/C(=C\c2ccc(-c3ccccc3Cl)o2)C(=O)N=C2SC(N3CCOCC3)=NN12`: the “% Inhibition @ 10 uM” value was 3.32%. With `O=C(C1c2ccccc2C(=O)N2CCc3ccccc3C12)N1CCC2(CC1)OCCO2` (centres unmarked) the figure was -7.85%; with `Cn1c(=O)c2c(-c3ccccc3)n(-c3ccc(C(=O)O)cc3)cc2n(C)c1=O`, 9.68%. Take `Cc1ccc(OCC(=O)Nc2ccc(C(C)C)cc2)cc1`: the “% Inhibition @ 10 uM” value is -3.03%. `CCN1CCC(N(CC)CCN(C)C)CC1`: the “% Inhibition @ 10 uM” value is -0.307%. Consider `CN1C(=O)C(=Cc2ccc(-c3ccc(Br)c4ccccc34)o2)C(=O)N(C)C1=O`, for which the “% Inhibition @ 10 uM” value is 1.37%.

As to `CCN1CCN(C(C(=O)NC2CCCC2)c2ccc(Cl)cc2)CC1` (centres unmarked), the “% Inhibition @ 10 uM” value is reported as -2.04%. Consider `O=C(NCCC1=CCCCC1)C1c2ccccc2Oc2ccccc21`, for which the “% Inhibition @ 10 uM” value is reported as -1.1%. With `Oc1ccc(CN2CCC(N3CCCCC3)CC2)cc1` the figure was -1.75%. As for `O=C(c1ccccc1)c1cccnc1C(=O)O`, the “% Inhibition @ 10 uM” value was 1.19%.

`O=C(O)C1C2CCC(C2)C1C(=O)Nc1ccc(Cl)cc1` (centres unmarked): the “% Inhibition @ 10 uM” value is reported as -0.996%. As to `CCN(CC)CCOC(=O)C12CC3CC(CC(C3)C1)C2`, the “% Inhibition @ 10 uM” value is 1.62%. Turning to `CCOC(=O)c1c(NC(C)=O)sc2c1CCC/C2=N\OC(=O)c1ccc(Br)cc1`, the “% Inhibition @ 10 uM” value stood at 2.8%. With `CCn1c2ccccc2c2cc(CN3CCC(O)(c4ccc(Cl)cc4)CC3)ccc21` the figure was 4.68%; with `O=C(O)c1ccc(CNC2CCCc3ccccc32)s1` (centres unmarked), -2.37%; with `COc1ccc(N(CC(=O)Nc2ccc(C)cc2C)S(C)(=O)=O)c(OC)c1`, -7.09%. In the case of `CCCOc1ccc(C2c3c(oc4ccc(F)cc4c3=O)C(=O)N2CCCN2CCOCC2)cc1` (centres unmarked), the “% Inhibition @ 10 uM” value was determined as 0.628%. With `CCOc1ccc(CCNC(=O)COCc2cc(-c3ccc(F)cc3)on2)cc1` the figure was -3.81%; with `Cc1cc(-c2ccc(C)c(S(=O)(=O)N3CCN(C4CCCCC4)CC3)c2)on1`, 0.098%; with `CC1CN(Cc2ccc(-c3ccccc3)cc2)CC(C)O1` (centres unmarked), -1.5%. On to `O=C1NC(=O)C23CCC12C1c2ccccc2C3c2ccccc21` (centres unmarked), for which the “% Inhibition @ 10 uM” value came out at 0.956%.

For `O=C(NCCc1ccccc1)c1ccc2c(c1)ncn2-c1ccc(F)cc1F`, the “% Inhibition @ 10 uM” value was -3.93%. With `Cc1cc(F)c(F)c(C(=O)N2CCC(C)CC2)c1Cl` the figure was -3.04%; with `Cc1ccccc1-n1c(C)cc(/C=C2\NC(=O)NC2=O)c1C`, -3.92%; with `O=C(Cn1ncc2ccc(Cl)cc21)NC1CCCCC1`, -1.11%. With `CCOc1ccccc1C1CC(=O)NC(SCC(=O)Nc2nccs2)=C1C#N` (centres unmarked) the figure was -3.56%. With `COC(=O)C1=CNC=C(C(=O)OC)C1c1cc(OC)c(OC)c(OC)c1` the figure was 15.9%. Consider `O=C(c1nn2c(C(F)(F)F)cc(-c3ccccc3)nc2c1Cl)N1CCN(c2ccc(F)cc2)CC1`, for which the “% Inhibition @ 10 uM” value is on record as -3.44%.

These data come from publication PMC6919601, “Identification of Plasmodium dipeptidyl aminopeptidase allosteric inhibitors by high throughput screening” (PLoS ONE, 2019).
